Target: the molecule itself
Assay: SEC-MALS

B1: STIM1^CT (cytoplasmic region of human STIM1) (domain or fragment)
chain: not shown
In the case of B1, the “stoichiometry N” value is reported as 2.
